{"source": "PubChem BioAssay AID504332", "about": "(National Center for Advancing Translational Sciences (NCATS), 2011)", "note": "Screen size: about 350,000 compounds; about 31,000 (8.9%) were called active. The call rests on the fitted dose curve; in most records, active means well fitted inhibition curve with a large enough effect; inconclusive means small, poorly fitted or top-dose-only effect; inactive means no such curve, though single readings can be large or run the other way. Inconclusive results, whose numbers are uncertain, are shown. Potencies of inconclusive entries are doubtful fits and often do not repeat. Potency means the concentration at half of the fitted maximal effect; tags describe the fitted curve by direction and shape."}
{"target": "Histone-lysine N-methyltransferase EHMT2 (Homo sapiens) (UniProt Q96KQ7)", "sequence (Q96KQ7 whole entry, looked up)": "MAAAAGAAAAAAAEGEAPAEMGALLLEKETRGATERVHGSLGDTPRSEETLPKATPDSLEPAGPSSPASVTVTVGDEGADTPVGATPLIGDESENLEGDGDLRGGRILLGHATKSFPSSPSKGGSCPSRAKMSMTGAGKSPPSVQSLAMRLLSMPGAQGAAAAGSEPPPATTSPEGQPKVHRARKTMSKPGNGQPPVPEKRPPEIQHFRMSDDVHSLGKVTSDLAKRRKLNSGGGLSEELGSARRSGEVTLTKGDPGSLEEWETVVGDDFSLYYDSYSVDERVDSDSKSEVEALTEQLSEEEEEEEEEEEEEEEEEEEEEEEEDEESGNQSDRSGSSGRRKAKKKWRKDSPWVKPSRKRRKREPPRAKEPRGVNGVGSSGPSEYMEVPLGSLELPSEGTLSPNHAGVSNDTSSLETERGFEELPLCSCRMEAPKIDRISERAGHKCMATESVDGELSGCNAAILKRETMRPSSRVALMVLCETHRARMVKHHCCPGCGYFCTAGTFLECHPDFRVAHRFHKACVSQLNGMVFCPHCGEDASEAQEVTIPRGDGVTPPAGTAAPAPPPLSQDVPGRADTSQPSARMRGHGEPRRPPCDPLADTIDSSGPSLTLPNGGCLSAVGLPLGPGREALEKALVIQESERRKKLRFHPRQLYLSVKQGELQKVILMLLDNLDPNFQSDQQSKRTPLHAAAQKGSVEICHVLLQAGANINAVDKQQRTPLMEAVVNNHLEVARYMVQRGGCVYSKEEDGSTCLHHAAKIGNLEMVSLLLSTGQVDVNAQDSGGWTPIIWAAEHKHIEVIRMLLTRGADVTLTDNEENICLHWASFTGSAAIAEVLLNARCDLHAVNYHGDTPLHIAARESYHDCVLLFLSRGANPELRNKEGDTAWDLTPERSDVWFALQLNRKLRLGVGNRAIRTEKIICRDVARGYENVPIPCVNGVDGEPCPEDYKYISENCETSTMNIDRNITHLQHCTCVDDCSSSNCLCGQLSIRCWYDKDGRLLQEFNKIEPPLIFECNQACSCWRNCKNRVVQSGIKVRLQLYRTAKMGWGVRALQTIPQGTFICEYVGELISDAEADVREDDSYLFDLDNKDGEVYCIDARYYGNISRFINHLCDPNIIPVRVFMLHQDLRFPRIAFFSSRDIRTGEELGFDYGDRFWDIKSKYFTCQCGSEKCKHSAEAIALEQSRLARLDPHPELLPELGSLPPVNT", "test": "qHTS Assay for Inhibitors of Histone Lysine Methyltransferase G9a; further: nearly all actives have a fitted effect of over 75% in size", "details": "G9a H3K9 monomethylation, AlphaScreen, 2 h; series mostly up to 59 µM", "from_the_text": "Methylated lysines, on the N-terminal tails of histone proteins serve as epigenetic markers to recruit factors that can then modify local chromatin structure to lead to functional consequences. G9a and other members of the SUV39 family of the SET domain-containing superfamily of histone lysine methyltransferases (HMT) have been identified to specifically methylate Lys9 of histone H3 (H3K9). G9a catalyzes the mono- and di-methylation of H3K9 in mammalian euchromatic regions, where the resulting H3K9me2 is indicative of transcriptional repression. […] Methylation of biotinylated-histone peptide is measured through specific antibody-based detection, in conjunction with streptavidin-coated donor and anti-IgG antibody-coated acceptor beads. […]\nTo each well of a 1,536w plate, 2ul of HMT enzyme (final 20nM) were added, using a nanoliter dispenser. […] Methylated b-H3K9 peptide product was detected with 0.5 ug/mL rabbit polyclonal anti-monomethyl histone H3K9 antibody (Abcam Inc., Cambridge, MA) and 20 ug/mL each streptavidin-coated donor and anti-rabbit IgG acceptor AlphaScreen beads. […] Microplates were then read on an EnVision multilabel plate reader using the 1,536 plate HTS AlphaScreen aperture (excitation time 80 ms, measurement time 240 ms)."}
{"smiles": "CCOc1cc(NS(=O)(=O)c2ccc(OC)cc2)c(OCC)cc1NC(C)=O", "Potency": "inconclusive: 79.4 µM [inhibitor, partial curve, poor fit]"}
